Over roughly 81,000 sequences, “one-hybrid fitness for binding NBS DNA” has its median near -0.1; the highest 2% begin near 0.36. The list shows a part of the results.

First the molecules themselves.
B1: Caulobacter ParB omega fusion; a variant is named by its letters at X, in order, B8GW30 (parent)
chain: MESVVVGEPGMSEGRRGLGRGLSALLGEVDAAPAQAPGEQLGGSREAPIEILQRNPDQPRRTFREEDLEDLSNSIREKGVLQPILVRPSPDTAGEYQIVAGERAWRAAQRAGLKTVPIMVRELDDLAVLEIGIIENVQRADLNVLEEALSYKVLMEKFERTQENIAQTIGKSXSHVANXMRLLXLPDEVQSYLVSGELTAXHARAIAAAADPVALAKQIIEGGLSVRETEALARKAPNLSAGKSKGGRPPRVKDTDTQALESDLSSVLGLDVSIDHRGSTGTLTITYATLEQLDDLCNRLTRGI

Variants of B1 are the subject of the experiment. The experiment can be described thus: one-hybrid fitness for binding NBS DNA (the Noc-binding site; scaled: cognate 1, non-cognate 0); higher = stronger binding. As to conditions: with NBS DNA site. Put shortly: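 In E. coli USO, a HIS3 reporter with its site placed 19 bp from the promoter was used to select Caulobacter ParB variants randomised at four specificity codons. Growth lasted 48 hours at 37°C on histidine-free M9 containing 0.1 mM IPTG and 5 mM 3-AT. Fitness was taken as the log change in variant-to-wild-type read ratio from Illumina sequencing of pre- and post-selection plasmids, rescaled between the non-cognate and cognate sites.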
For YRKN, the “one-hybrid fitness for binding NBS DNA” value was not above 0.2.
MWVV: the “one-hybrid fitness for binding NBS DNA” value was not above 0.2.
MTKV: the “one-hybrid fitness for binding NBS DNA” value was not above 0.2.
In the case of MLPW it was not above 0.2.
CPSS: the “one-hybrid fitness for binding NBS DNA” value was not above 0.2.
In the case of TVTW it was not above 0.2.
Take ILEC: the “one-hybrid fitness for binding NBS DNA” value was not above 0.2.
Then KRNN, with not above 0.2.
In the case of QFMS it was not above 0.2.
Consider ECLD, for which the “one-hybrid fitness for binding NBS DNA” value was not above 0.2.
In the case of SPGV, the “one-hybrid fitness for binding NBS DNA” value is not above 0.2.
With AGMM, the “one-hybrid fitness for binding NBS DNA” value was not above 0.2.
As for PQTF, the “one-hybrid fitness for binding NBS DNA” value was not above 0.2.
In the case of ECNG it was not above 0.2.
Then VSCH, with not above 0.2.
In the case of YDRS it was not above 0.2.
MANC: the “one-hybrid fitness for binding NBS DNA” value was not above 0.2.
Take ACAT: the “one-hybrid fitness for binding NBS DNA” value was not above 0.2.
Regarding RWLY, the “one-hybrid fitness for binding NBS DNA” value is not above 0.2.
In the case of AVNP it was not above 0.2; in that of YCWS, not above 0.2; in that of NQQC, not above 0.2.
FLNF: the “one-hybrid fitness for binding NBS DNA” value is not above 0.2.
PPMH: the “one-hybrid fitness for binding NBS DNA” value is not above 0.2.
As to SMLS, the “one-hybrid fitness for binding NBS DNA” value is not above 0.2.
With DYDS, the “one-hybrid fitness for binding NBS DNA” value is not above 0.2.
Then LSNG, with not above 0.2; and GKMI, with not above 0.2.
In the case of PIVP it was not above 0.2.
Take QQIE: the “one-hybrid fitness for binding NBS DNA” value was not above 0.2.
Consider AARD, for which the “one-hybrid fitness for binding NBS DNA” value was not above 0.2.
Then CSHW, with not above 0.2.
Take ATNS: the “one-hybrid fitness for binding NBS DNA” value was not above 0.2.
Then THFA, with not above 0.2; and TYQC, with not above 0.2.
In the case of QIIG it was not above 0.2; in that of YYKC, not above 0.2.
Then QERL, with not above 0.2; and RFDM, with not above 0.2.
Consider HDFG, for which the “one-hybrid fitness for binding NBS DNA” value was not above 0.2.
In the case of VKWF it was not above 0.2; in that of LTNI, not above 0.2; in that of KLRY, not above 0.2.
Then PQTI, with not above 0.2; and QRMW, with 0.233; and TGKF, with not above 0.2.
For the variant RGCD, the “one-hybrid fitness for binding NBS DNA” value was not above 0.2.
Turning to APDS, the “one-hybrid fitness for binding NBS DNA” value is not above 0.2.
For PDRE, the “one-hybrid fitness for binding NBS DNA” value is not above 0.2.
Consider PSYR, for which the “one-hybrid fitness for binding NBS DNA” value is not above 0.2.
On to CQTS, for which the “one-hybrid fitness for binding NBS DNA” value is not above 0.2.
Take QRHC: the “one-hybrid fitness for binding NBS DNA” value turned out to be 0.437.
As to HYNS, the “one-hybrid fitness for binding NBS DNA” value was not above 0.2.
Then PMRV, with not above 0.2; and VMFF, with not above 0.2; and HATC, with not above 0.2.
Regarding LGRC, the “one-hybrid fitness for binding NBS DNA” value was not above 0.2.
Then RAVY, with not above 0.2; and PCTG, with not above 0.2; and RHER, with 0.235.
As for QNPE, the “one-hybrid fitness for binding NBS DNA” value was not above 0.2.
In the case of GLCW it was not above 0.2.
In the case of HQEL it was not above 0.2; in that of VQRK, not above 0.2; in that of ENSK, not above 0.2.
MALG: the “one-hybrid fitness for binding NBS DNA” value was not above 0.2.
In the case of ISCI it was not above 0.2.
On to YGPV, for which the “one-hybrid fitness for binding NBS DNA” value is not above 0.2.
Then NVTV, with not above 0.2.
Consider RLSC, for which the “one-hybrid fitness for binding NBS DNA” value was not above 0.2.
Consider RKSY, for which the “one-hybrid fitness for binding NBS DNA” value is not above 0.2.
In the case of PMRD it was not above 0.2; in that of DGNC, not above 0.2; in that of RWPT, not above 0.2.
In the case of MQRS it was not above 0.2; in that of QCAR, 0.643; in that of LMLL, not above 0.2.
For the variant HHNY, the “one-hybrid fitness for binding NBS DNA” value is not above 0.2.
Take DLHL: the “one-hybrid fitness for binding NBS DNA” value was not above 0.2.
Then AIHH, with not above 0.2; and QDCP, with not above 0.2.
In the case of SCEE it was not above 0.2; in that of GEMW, not above 0.2; in that of YRKY, not above 0.2.
